From PubChem BioAssay (NCI)
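Values below derive from 48-hour exposures of cells grown in 96-well plates, with endpoints linearly interpolated between the two concentrations bracketing the appropriate inhibition level. The concentration for 50% growth inhibition is given as GI50.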 Certain results were filed several times, with different values. They are shown here; other results are not. An entry can have further records. For part of these data: The tests behind the records often covered other concentration ranges, not given here; some values may only mark the edge of a range. A tag in brackets gives the origin of a value. A, B and so on number the origins entry by entry. For part of these data: Values that stand side by side repeat one measurement in other runs, samples, wells, individuals or studies.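 TGI marks complete inhibition of growth.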

Tests used:
Experiment in all cases: DTP human tumour cell line panel, 48 h
[1] = tested on: SF-268 CNS
[2] = tested on: A549 NSCLC
[3] = tested on: UO-31 renal
[4] = tested on: SK-MEL-5 melanoma
[5] = tested on: NCI-H226 lung
[6] = tested on: SNB-75 CNS
[7] = tested on: SK-OV-3 ovarian
[8] = tested on: 786-0 renal
[9] = tested on: PC-3 prostate
[10] = tested on: RXF 393 renal
[11] = tested on: OVCAR-3 ovarian
[12] = tested on: HCT-15 colon
[13] = tested on: NCI-H522 lung
[14] = tested on: HL-60(TB) leukemia
[15] = tested on: MCF7 breast
[16] = tested on: DLD-1 colon
[17] = tested on: MDA-N
[18] = tested on: DU-145 prostate
[19] = tested on: A498 renal
[20] = tested on: SF-295 CNS
[21] = tested on: DMS 273 small cell lung
[22] = tested on: DMS 114 small cell lung
[23] = tested on: NCI-H460 lung
[24] = tested on: OVCAR-5 ovarian
[25] = tested on: OVCAR-8 ovarian

## Nc1ncn(C2OC(CO)C(O)C2O)c(=O)n1 (stereo not drawn)
[1]
  TGI: > 250 µM [sample A, mean of 15 tests] and 62.3 µM [sample B, mean of 10 tests] and 33.5 µM [sample B, mean of 3 tests] and 30.3 µM [sample B, mean of 6 tests]
[2]
  TGI: > 210 µM [sample A, mean of 15 tests] and 22.4 µM [sample B, mean of 10 tests] and 36.1 µM [sample B, mean of 3 tests] and 11.8 µM [sample B, mean of 6 tests]
[3]
  TGI: > 250 µM [sample A, mean of 14 tests] and 4.81 µM [sample B, mean of 2 tests] and 5.21 µM [sample B, mean of 3 tests] and 5.56 µM [sample B, mean of 5 tests]
[4]
  TGI: > 250 µM [sample A, mean of 12 tests] and 6.98 µM [sample B, mean of 10 tests] and 15.3 µM [sample B, mean of 3 tests] and 6.25 µM [sample B, mean of 6 tests]
[5]
  TGI: > 250 µM [sample A, mean of 10 tests] and 11.9 µM [sample B, mean of 3 tests] and 9.92 µM [sample B, mean of 5 tests] and 9.32 µM [sample B, mean of 6 tests]
[6]
  TGI: > 250 µM [sample A, mean of 11 tests] and 28.6 µM [sample B, mean of 3 tests] and 15.3 µM [sample B, mean of 5 tests] and 22.4 µM [sample B, mean of 7 tests]
[7]
  GI50: > 182 µM [sample A, mean of 12 tests] and 2.42 µM [sample B, mean of 10 tests] and 2.72 µM [sample B, mean of 3 tests] and 3.66 µM [sample B, mean of 6 tests]
  TGI: > 205 µM [sample A, mean of 12 tests] and 14.6 µM [sample B, mean of 10 tests] and 12.8 µM [sample B, mean of 3 tests] and 13.8 µM [sample B, mean of 6 tests]
[8]
  TGI: > 250 µM [sample A, mean of 4 tests] and 32.4 µM, 58 µM [sample B, mean of 3 tests] and 12.3 µM [sample B, mean of 6 tests]
[9]
  GI50: > 130 µM [sample A, mean of 4 tests] and 2.31 µM [sample B, mean of 3 tests] and 609 nM [sample B, mean of 4 tests] and 1.24 µM [sample B, mean of 6 tests]
  TGI: > 250 µM [sample A, mean of 4 tests] and 27.7 µM [sample B, mean of 3 tests] and 8 µM [sample B, mean of 4 tests] and 31.5 µM [sample B, mean of 6 tests]
[10]
  GI50: > 175 µM [sample A, mean of 14 tests] and 659 nM [sample B, mean of 10 tests] and 425 nM [sample B, mean of 3 tests] and 511 nM [sample B, mean of 6 tests]
  TGI: > 238 µM [sample A, mean of 14 tests] and 4.4 µM [sample B, mean of 10 tests] and 3.26 µM [sample B, mean of 3 tests] and 7.66 µM [sample B, mean of 6 tests]
[11]
  GI50: > 237 µM [sample A, mean of 12 tests] and 2.24 µM [sample B, mean of 3 tests] and 1 µM, 1.26 µM [sample B, mean of 5 tests]
  TGI: > 250 µM [sample A, mean of 12 tests] and 7.04 µM [sample B, mean of 3 tests] and 3.64 µM, 5.09 µM [sample B, mean of 5 tests]
[12]
  TGI: > 250 µM [sample A, mean of 14 tests] and > 55.5 µM [sample B, mean of 3 tests] and 73.2 µM [sample B, mean of 5 tests] and 13.3 µM [sample B, mean of 7 tests]
[13]
  TGI: > 250 µM [sample A, mean of 15 tests] and 10 µM [sample B, mean of 3 tests] and 6.65 µM [sample B, mean of 5 tests] and 4.19 µM [sample B, mean of 7 tests]
[14]
  TGI: > 198 µM [sample A, mean of 11 tests] and 4.54 µM [sample B, mean of 3 tests] and 15.9 µM [sample B, mean of 4 tests] and 1.4 µM [sample B, mean of 7 tests]
[15]
  TGI: > 250 µM [sample A, mean of 12 tests] and > 69.5 µM [sample B, mean of 3 tests] and 56.6 µM [sample B, mean of 4 tests] and 21.9 µM [sample B, mean of 8 tests]
[16]
  GI50: > 243 µM [sample A, mean of 8 tests] and 795 nM [sample B, mean of 5 tests]
  TGI: > 250 µM [sample A, mean of 8 tests] and 24 µM [sample B, mean of 5 tests]
[17]
  TGI: 18.5 µM [sample A, 1 test] and > 250 µM [sample A, mean of 3 tests] and 9.28 µM, 5.67 µM [sample B, mean of 4 tests]
[18]
  GI50: 247 µM [sample A, mean of 4 tests] and 283 nM [sample B, mean of 2 tests] and 805 nM [sample B, mean of 3 tests] and 495 nM [sample B, mean of 5 tests]
  TGI: > 250 µM [sample A, mean of 4 tests] and 7.55 µM [sample B, mean of 2 tests] and 10.9 µM [sample B, mean of 3 tests] and 4.97 µM [sample B, mean of 5 tests]
[19]
  TGI: > 250 µM [sample A, mean of 14 tests] and 7.81 µM [sample B, mean of 3 tests] and 5.44 µM [sample B, mean of 5 tests] and 5.2 µM [sample B, mean of 9 tests]
[20]
  GI50: > 238 µM [sample A, mean of 10 tests] and 2.45 µM [sample B, mean of 3 tests] and 1.99 µM [sample B, mean of 6 tests] and 1.6 µM [sample B, mean of 8 tests]
  TGI: > 250 µM [sample A, mean of 10 tests] and 19.3 µM [sample B, mean of 3 tests] and 18.5 µM [sample B, mean of 6 tests] and 13.1 µM [sample B, mean of 8 tests]
[21]
  TGI: > 250 µM [sample A, mean of 7 tests] and 6.95 µM [sample B, mean of 4 tests]
[22]
  TGI: > 220 µM [sample A, mean of 9 tests] and 12.5 µM [sample B, mean of 5 tests]
[23]
  GI50: 3.12 µM [sample A, 1 test] and 5.6 µM [sample A, mean of 15 tests] and 263 nM [sample B, mean of 3 tests] and 133 nM [sample B, mean of 5 tests] and 403 nM [sample B, mean of 7 tests]
  TGI: 14.9 µM [sample A, 1 test] and 164 µM [sample A, mean of 15 tests] and 3.2 µM [sample B, mean of 3 tests] and 1.38 µM [sample B, mean of 5 tests] and 3.51 µM [sample B, mean of 7 tests]
[24]
  TGI: > 223 µM [sample A, mean of 14 tests] and 63.3 µM [sample B, mean of 3 tests] and 60.8 µM [sample B, mean of 6 tests] and 49.9 µM [sample B, mean of 9 tests]
[25]
  TGI: > 250 µM [sample A, mean of 14 tests] and 7.69 µM [sample B, mean of 10 tests] and 17.6 µM [sample B, mean of 3 tests] and 22.6 µM [sample B, mean of 6 tests]
